Experimental data as given in publication PMC10215934, “Daptomycin Pharmacokinetics in Blood and Wound Fluid in Critical Ill Patients with Left Ventricle Assist Devices” (Antibiotics, 2023).

Details: HPLC-UV; for stability of serum samples (time at > 90% of baseline concentration): human serum
Method: Optional: serum patient sample with daptomycin (grey curve 300 nm, black curve 370 nm).
Daptomycin concentration [mg/l] […]
validation, stability was tested in human serum and water for injection at different conditions, including room temperature, refrigeration at 4° C, and freezing at -20° C as well as -80° C. For stability testing, two samples were thawed out and subsequently analyzed. Stability was defined by the time at which the samples remained at a concentration of > 90% for their baseline concentrations.
(1 picture or pasted object on this page, not shown here)

CCCCCCCCCC(=O)N[C@@H](Cc1c[nH]c2ccccc12)C(=O)N[C@H](CC(N)=O)C(=O)N[C@@H](CC(=O)O)C(=O)N[C@@H]1C(=O)NCC(=O)N[C@@H](CCCN)C(=O)N[C@@H](CC(=O)O)C(=O)N[C@H](C)C(=O)N[C@@H](CC(=O)O)C(=O)NCC(=O)N[C@H](CO)C(=O)N[C@@H]([C@H](C)CC(=O)O)C(=O)N[C@@H](CC(=O)c2ccccc2N)C(=O)O[C@@H]1C [Daptomycin]
stability of stock solutions (time at > 90% of baseline concentration) (4°C): ≥ 5 days | stability of stock solutions (time at > 90% of baseline concentration) (-20°C): ≥ 3 months | stability of stock solutions (time at > 90% of baseline concentration) (-80°C): ≥ 12 months | stability of serum samples (time at > 90% of baseline concentration) (4°C): ≥ 2 days | stability of serum samples (time at > 90% of baseline concentration) (-20°C): ≥ 3 months | stability of serum samples (time at > 90% of baseline concentration) (-80°C): ≥ 12 months | stability of serum samples (time at > 90% of baseline concentration) (room temperature): at least 24 h | stability of stock solutions (time at > 90% of baseline concentration) (room temperature): at least 24 h

Like-named read-outs stand apart in the source and are kept apart here.
